Source: PubChem BioAssay AID624173 (National Center for Advancing Translational Sciences (NCATS), 2012)
In all, about 410,000 compounds went through this assay and about 490 (0.12%) were called active. Inconclusive means that the source gave no clear call. Such entries were picked first, then a sample of the others. The call rests on the fitted dose curve; in most records, active means well fitted inhibition curve with a large enough effect; inconclusive means small, poorly fitted or top-dose-only effect; inactive means flat fitted curve, though single readings scatter. Potencies of inconclusive entries are doubtful fits and often do not repeat.

The compounds below were run against pyruvate kinase (Trypanosoma brucei) (UniProt Q57TT1) (assay: qHTS of Trypanosoma Brucei Inhibitors). Conditions: TbPYK enzyme, Kinase-Glo Plus ATP luminescence, 45 min; series mostly up to 76.8 µM; activity, negative = inhibition: at the top concentration.
Outline: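 ADP (130 uM final) triggers the TbPYK reaction after compound addition; incubation is 45 min at room temperature. Kinase-Glo Plus is then added and luminescence imaged. Normalized data are fitted to concentration-effect curves.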
Further: nearly all actives have a fitted effect of over 50% in size.
On the % scale 0 is the no-effect control and ±100 the full control effect; potency means the concentration at half of the fitted maximal effect; tags describe the fitted curve by direction and shape.

SMILES | Potency | activity, negative = inhibition
CSc1sc2ccccc2[n+]1CCCS(=O)(=O)[O-] | inconclusive: 31.6 µM [inhibitor, single point] | –
S=c1[nH]nc(Cc2noc3ccccc23)n1-c1ccc(Cl)cc1 | inconclusive: 5.62 µM [inhibitor, partial curve, poor fit] | –
Cc1ccc(CSCCC(=O)N2CCN(c3ccc(F)cc3)CC2)cc1 | – | inactive: -1.22%
COc1ccc(N2CC(O)=C(c3n(C)c4ccccc4[n+]3C)C2=N)cc1 | inconclusive: 50.1 µM [inhibitor, single point] | –
CC(=O)NS(=O)(=O)c1ccc(NC(=O)c2cc(-c3ccc(C)c(C)c3)nc3ccccc23)cc1 | – | inactive: -2.79%
Cn1c(-c2ccco2)nc2cc3ccccc3cc21 | inconclusive: 22.4 µM [inhibitor, partial curve, poor fit] | –
CCOc1cc(C2CC(=O)NC(SCC)=C2C#N)ccc1O (stereo not drawn) | – | inactive: -13.7%
Cc1cc(-n2c(=O)[nH]c(=O)n(C)c2=O)ccc1Oc1ccc(S(=O)(=O)C(F)(F)F)cc1 | – | inactive: -7.97%
C(=Cc1cnc2ccccc2n1)c1ccc2c(c1)OCO2 | inconclusive: 28.2 µM [inhibitor, partial curve] | –
C=CCn1c(Cc2cccc3ccccc23)n[nH]c1=S | inconclusive: 2.51 µM [inhibitor, full curve, poor fit] | –
COc1cccc(-n2c(Cn3nc(C(F)(F)F)cc3C)n[nH]c2=S)c1 | active: 3.98 µM | –
c1ccc(SCCOCCN2CCOCC2)cc1 | – | inactive: 2.65%
CCN(CC)c1ccc(C(=C2C=CC(=[N+](CC)CC)C=C2)c2ccccc2)cc1 | inconclusive: 35.5 µM [inhibitor, partial curve, poor fit] | –
COc1ccccc1-n1c(-c2ccco2)n[nH]c1=S | active: 10 µM | –
COc1ccc(-c2nc3ccc(C)cn3c2Cc2ccsc2)cc1OC | – | inactive: 4.23%
N#CC1=C(SCC(=O)NCc2ccccc2)NC(=O)CC1c1ccco1 (stereo not drawn) | inconclusive: 28.2 µM [inhibitor, single point] | –
O=C(COC(=O)C1CCCCC1)Nc1ccccc1OC(F)F | inconclusive: 50.1 µM [inhibitor, single point] | –
COc1ccccc1Cn1c(=S)[nH]c2cc(C(=O)N3CCC(C(N)=O)CC3)ccc2c1=O | inconclusive: 39.8 µM [inhibitor, single point] | –
S=c1[nH]nc(-c2cccnc2)n1/N=C/C=C/c1ccco1 | inconclusive: 12.6 µM [inhibitor, partial curve] | –
Cc1ccc(N2C(=O)CC(N3CCN/C3=C3\CC/C(=C\c4ccccc4)C3=O)C2=O)cc1 (stereo not drawn) | – | inactive: 0.993%
CC1CCC/C(=N\Nc2ccc(Cl)c(C(=O)O)c2)C1 (stereo not drawn) | – | inactive: -7.06%
CCSc1ncc(/C=N/Nc2ccccc2)n1C | inconclusive: 44.7 µM [inhibitor, single point] | –
O=C(O)/C=C/c1ccc(O)c(O)c1 | inconclusive: 31.6 µM [inhibitor, partial curve] | –
Cc1ccc(-c2nc(-c3ccccn3)no2)cc1 | inconclusive: 39.8 µM [inhibitor, partial curve, poor fit] | –
Cc1nc2ccc(NC(=O)c3ccc(Cl)c(NC(=O)c4cccs4)c3)cc2s1 | – | inactive: 2.93%

SMILES | Potency | activity, negative = inhibition
O=C(Nc1ccc2c(c1)CCC2)c1ccc(F)cc1 | – | inactive: -3.23%
CC(/C=C/c1ccco1)=N\NC(=O)c1cccnc1 | – | inactive: -4.15%
CCn1c(C(C)NS(=O)(=O)c2ccc(Cl)cc2)n[nH]c1=S (stereo not drawn) | inconclusive: 44.7 µM [inhibitor, single point] | –
COc1ccc2c(c1)c1ccc3c(c1n2C)C(=O)C=CC3=O | inconclusive: 50.1 µM [inhibitor, single point] | –
O=C(NCc1ccccc1)c1ccc(CSc2ccccc2)o1 | – | inactive: 2.28%
O=C(c1ccccc1C(=O)N(c1ccccc1)c1ccccc1)N1CCCCC1 | inconclusive: 28.2 µM [inhibitor, partial curve, poor fit] | –
CCOC(=O)c1ccc(N/C=C/C(=O)c2ccccc2)cc1 | – | inactive: -14.8%
Cc1ccc(-c2csc(NC(=O)Cc3ccc(F)cc3)n2)o1 | inconclusive: 28.2 µM [inhibitor, partial curve] | –
CC1(C)Cc2c(c(N3CCOCC3)nc3sc(C(=O)Nc4ccc(Cl)cc4)c(N)c23)CO1 | inconclusive: 28.2 µM [inhibitor, partial curve] | –
Cc1ccc(/C=C/C(=O)NCc2cccs2)o1 | inconclusive: 50.1 µM [inhibitor, single point] | –
C=CCNC(=O)c1ccccc1CCc1ccccc1 | inconclusive: 31.6 µM [inhibitor, single point] | –
COc1cc(Cl)c(C)cc1NC(=O)CNC(=O)Cn1ccc2ccccc2c1=O | – | inactive: -3.07%
O=c1oc2c3c4c(cc2s1)CCCN4CCC3 | inconclusive: 44.7 µM [inhibitor, single point] | –
Cn1ccn(CCCCCCn2ccn(C)c2=S)c1=S | inconclusive: 31.6 µM [inhibitor, single point] | –
Cc1ccc(C(=O)N2CCCC(Nc3ccc(F)c(F)c3)C2)cn1 (stereo not drawn) | – | inactive: 0.157%
CCOc1ccc(Cc2n[nH]c(=S)n2N)cc1 | inconclusive: 31.6 µM [inhibitor, partial curve] | –
O=c1cc(O)n(-c2ccccc2)c(=S)[nH]1 | inconclusive: 11.2 µM [inhibitor, partial curve, poor fit] | –
O=c1c2cc([N+](=O)[O-])cc([N+](=O)[O-])c2[nH]n1-c1ccccc1 | inconclusive: 28.2 µM [inhibitor, single point] | –
Cc1cccc(OCCCC(=O)Nc2ccc(N(C)C)cc2)c1 | inconclusive: 11.2 µM [inhibitor, partial curve, poor fit] | –
COc1ccc(N2C(=O)CC(N3CCN(c4ccc(Cl)cc4)CC3)C2=O)cc1 (stereo not drawn) | – | inactive: -2.58%
CC(=O)Nc1cccc(C(=O)/C=C/c2ccc(F)cc2)c1 | – | inactive: 0.265%
COc1ccc(CCN2C(=O)C=CC2=O)cc1OC | inconclusive: 28.2 µM [inhibitor, partial curve, poor fit] | –
Cc1nc(N(C)Cc2ccccc2)c2c(C)c(C)sc2n1 | inconclusive: 35.5 µM [inhibitor, partial curve, poor fit] | –
COc1cccc(C(=O)NCc2ccc3c(c2)OCO3)c1 | inconclusive: 1.26 µM [inhibitor, full curve] | –
S=c1[nH]nc(-c2ccccc2Cl)n1Cc1ccccc1 | active: 6.31 µM | –

SMILES | Potency | activity, negative = inhibition
Cn1c(-c2csc(-c3cccc(C(F)(F)F)c3)n2)n[nH]c1=S | inconclusive: 3.55 µM [inhibitor, full curve] | –
Cc1ccccc1CN1C(=O)c2ccccc2S(=O)c2ccc(C(=O)NCc3ccco3)cc21 (stereo not drawn) | – | inactive: -5.85%
Cc1ccc(N2CC(NC(=O)c3ccco3)CC2=O)cc1 (stereo not drawn) | – | inactive: -1.99%
CCOC(=O)c1cccc(NC(=S)NC(=O)c2cccnc2)c1 | – | inactive: -4.86%
CC(C)NS(=O)(=O)c1ccc(OCC(=O)N2CCCC2)cc1 | – | inactive: -5.9%
Cc1nc(CSc2nnc3scc(-c4ccc(Cl)cc4)n23)cs1 | inconclusive: 35.5 µM [inhibitor, single point] | –
C=C(C)Cn1c(CCn2c3ccccc3c3ccccc32)n[nH]c1=S | inconclusive: 44.7 µM [inhibitor, partial curve, poor fit] | –
CCOC(=O)C1=C(N)Oc2ccc3ccccc3c2C1c1cccnc1 (stereo not drawn) | – | inactive: 2.53%
O=c1[nH]c(SCc2n[nH]c(=S)n2-c2ccccc2)nc2ccccc12 | inconclusive: 6.31 µM [inhibitor, partial curve] | –
NC(=O)C1CCCN(CCc2ccccc2)C1 (stereo not drawn) | inconclusive: 50.1 µM [inhibitor, single point] | –
Cc1ccc2c(c1)C(N1CCCC1=O)CC(c1ccco1)N2 (stereo not drawn) | inconclusive: 25.1 µM [inhibitor, partial curve, poor fit] | –
CC[n+]1c(/C=C/C=C/N(C(C)=O)c2ccccc2)sc2cc(OC)ccc21 | inconclusive: 28.2 µM [inhibitor, single point] | –
Cc1nn(Cc2ccccc2)c(C)c1C=C1C(=O)NC(=S)NC1=O | inconclusive: 28.2 µM [inhibitor, partial curve] | –
Cc1nc2ccc(S(=O)(=O)NCC(=O)O)cc2s1 | inconclusive: 28.2 µM [inhibitor, partial curve, poor fit] | –
CCN(CC)c1ccc(/C=C2\SC(=O)N(C(C)C)C2=O)o1 | inconclusive: 39.8 µM [inhibitor, partial curve, poor fit] | –
O=c1c2c3c(sc2nc2n1N=C(c1cccs1)CS2)CCCC3 | inconclusive: 28.2 µM [inhibitor, partial curve] | –
CCOC(=O)C[n+]1c(C)sc2ccc(OC)cc21 | inconclusive: 17.8 µM [inhibitor, partial curve, poor fit] | –
Cn1cnnc1SCC(=O)c1cc2ccccc2oc1=O | inconclusive: 35.5 µM [inhibitor, partial curve] | –
NS(=O)(=O)c1ccc(NC(=S)NC2CCCCC2)cc1 | inconclusive: 11.2 µM [inhibitor, partial curve, poor fit] | –
CCOc1ccc(N2C(=O)NC(=O)/C(=C\c3ccccc3[N+](=O)[O-])C2=O)cc1 | inconclusive: 25.1 µM [inhibitor, partial curve] | –
CC(=O)Oc1ccccc1C(=O)O | inconclusive: 50.1 µM [inhibitor, partial curve, poor fit] | –
COc1ccc(-c2cc3c(nn2)-c2ccccc2C3=O)cc1 | inconclusive: 17.8 µM [inhibitor, partial curve, poor fit] | –
COc1ccc(OC)c(-n2c(-c3cccc(C)c3)n[nH]c2=S)c1 | active: 2.51 µM | –
